Assay results from paper PMC4336329 (PLoS ONE, 2015).
Out of some 310,000 compounds screened, about 2,200 (0.71%) showed an effect of 50% or more. The effect is printed as a negative number. Some of the results follow.

biological target: human ether-à-go-go-related gene (hERG) potassium channel (human, UniProt Q12809); experiment: primary screen, population patch clamp on CHO cells stably expressing hERG
Sequence (Q12809 whole entry, looked up): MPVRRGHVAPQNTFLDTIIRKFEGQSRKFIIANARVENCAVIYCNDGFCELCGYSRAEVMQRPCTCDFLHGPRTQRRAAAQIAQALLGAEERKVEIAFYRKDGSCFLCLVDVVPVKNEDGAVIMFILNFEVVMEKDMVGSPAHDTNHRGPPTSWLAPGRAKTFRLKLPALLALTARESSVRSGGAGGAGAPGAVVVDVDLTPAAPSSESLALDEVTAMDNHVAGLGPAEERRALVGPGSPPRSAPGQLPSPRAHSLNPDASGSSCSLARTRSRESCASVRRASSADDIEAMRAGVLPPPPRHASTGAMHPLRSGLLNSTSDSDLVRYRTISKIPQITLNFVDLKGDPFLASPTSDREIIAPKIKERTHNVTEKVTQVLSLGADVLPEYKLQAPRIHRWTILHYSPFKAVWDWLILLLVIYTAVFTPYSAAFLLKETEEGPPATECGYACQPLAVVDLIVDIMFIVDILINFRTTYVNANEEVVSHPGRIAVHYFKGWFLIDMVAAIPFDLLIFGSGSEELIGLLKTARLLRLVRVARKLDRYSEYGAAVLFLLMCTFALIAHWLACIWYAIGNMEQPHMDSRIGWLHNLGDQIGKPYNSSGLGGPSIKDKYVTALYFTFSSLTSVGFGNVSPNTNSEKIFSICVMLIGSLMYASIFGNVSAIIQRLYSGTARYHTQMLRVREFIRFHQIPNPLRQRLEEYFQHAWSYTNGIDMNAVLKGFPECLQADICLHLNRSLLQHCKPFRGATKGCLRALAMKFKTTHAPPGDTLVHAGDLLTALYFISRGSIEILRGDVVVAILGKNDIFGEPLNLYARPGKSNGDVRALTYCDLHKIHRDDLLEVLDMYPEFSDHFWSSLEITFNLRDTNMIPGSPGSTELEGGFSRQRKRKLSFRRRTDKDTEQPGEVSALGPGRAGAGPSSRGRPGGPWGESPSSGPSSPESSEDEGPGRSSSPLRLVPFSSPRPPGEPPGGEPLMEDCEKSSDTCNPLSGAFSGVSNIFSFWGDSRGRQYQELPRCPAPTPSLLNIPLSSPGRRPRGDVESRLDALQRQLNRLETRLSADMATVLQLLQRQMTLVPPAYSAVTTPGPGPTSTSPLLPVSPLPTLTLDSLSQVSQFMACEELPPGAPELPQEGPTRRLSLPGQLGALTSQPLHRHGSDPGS

Row | SMILES | hERG current change (%, negative = inhibition) at 1uM [%]
1 | CCCCNC(=O)C1CCN(Cc2ccccn2)CC1 | 13.2
2 | O=C(CSc1nccc(=O)[nH]1)NC1CCCc2ccccc21 (centres unmarked) | 9.07
3 | CCOC(=O)C1CCCN(C(=O)c2ccc(C)c(NC(=O)C3=C(C)OCCS3)c2)C1 (centres unmarked) | 0.737
4 | CCOc1ccc(Cn2nnc(-c3ccc(S(C)(=O)=O)cc3)n2)cc1OCC | 10.6
5 | O=C(CNC(=O)c1cccs1)N=Nc1c(O)[nH]c2ccc(Br)cc12 | 13
6 | COc1ccc(-n2c(-c3ccc(Br)cc3)c[n+]3c2CCCCC3)cc1.[Br-] | -24.6
7 | Cc1oc(-c2ccccc2Cl)nc1CSc1nc2c(c(=O)[nH]1)CCCC2 | 8.24
8 | Cc1cc(C)c(S(=O)(=O)N2CCCCC2CCNC(=O)C(=O)NCCN2CCOCC2)c(C)c1 (centres unmarked) | 6.75
9 | Cc1nccn1S(=O)(=O)c1cc([N+](=O)[O-])ccc1Cl | 6.77
10 | Cn1c(Oc2ccc(F)cc2F)c(C=O)c2ccccc21 | 6.16
11 | COc1ccc2[nH]c(=O)c(CNc3ccc(C)c(C)c3)cc2c1 | 6.61
12 | CN(CCCC1CCCC1)C(=O)c1cc(COc2ccc(F)c(F)c2)on1 | 12.9
13 | Fc1ccc(N2CCN(c3nnnn3-c3ccccc3)CC2)cc1 | 10.5
14 | CCOC(=O)C1(Cc2cccc(OC)c2)CCN(Cc2ccc(C)s2)CC1 | -53.1
15 | CC(C)c1ccc(NC(=O)N2CCc3ccccc3C2)cc1 | 10.1
16 | O=C(Nc1cccc(S(=O)(=O)C(F)F)c1)c1ccc(S(=O)(=O)N2CCCC2)cc1 | 8.32
17 | Cn1c(=O)c2c(nc(Cl)n2CC(=O)N2CCCCC2)n(C)c1=O | 22.7
18 | O=C1c2ccccc2C(=O)N1CCCOc1ccccc1 | 12.8
19 | O=C(NCCCn1ccnc1)/C(=C\c1cccnc1)NC(=O)c1ccccc1F | 8
20 | Cc1ccc(C2CC(=O)Nc3cc4c(cc32)OCO4)o1 (centres unmarked) | 9.99
21 | CC(C)(C)NC(=O)C(=O)NNC(=O)COc1ccccc1 | -8.11
22 | CN1C(=O)c2ccc(NC(=O)C3CC3)cc2C1=O | 13.7

Row | SMILES | hERG current change (%, negative = inhibition) at 1uM [%]
23 | Nc1nonc1NC(=O)NN=C1CCCCC1 | 0.561
24 | Cc1[nH]c2ccccc2c1/C=N/NC(=O)CCC(=O)NCc1ccccc1 | 13.7
25 | Cc1cccn2c(=O)c3cc(C(=O)N4CC(C)CC(C)C4)sc3nc12 (centres unmarked) | 12.4
26 | O=C(CN1C(=O)C(=O)N(Cc2ccccc2)C1=O)Nc1ccc(OC(F)F)cc1 | 10.2
27 | Cc1cc(=O)[nH]c(NCc2ccccc2)n1 | 5.39
28 | O=C(NCc1cc(C(F)(F)F)cc(C(F)(F)F)c1)C1CC(c2ccc(C(F)(F)F)cc2)=NO1 (centres unmarked) | 18.6
29 | Cn1cc(SCC(N)=O)c2ccccc21 | 4.32
30 | COc1cc2cc(C(=O)N/N=C/c3ccc(F)cc3)[nH]c2cc1OC | 7.96
31 | COc1ccc2[nH]c3c(N4CC(C)OC(C)C4)ncnc3c2c1 (centres unmarked) | 6.22
32 | O=C(O)c1ccc(N2C(=O)c3ccc(C(=O)c4cccc([N+](=O)[O-])c4)cc3C2=O)cc1 | 1.43
33 | CCOC(=O)c1cnc2c(OC)cccc2c1N1CCN(c2ccccn2)CC1 | -8.21
34 | Cc1ccc(OC(=O)c2ccc(Br)o2)cc1 | 6.59
35 | O=C(Nc1ccccc1F)c1ccn[nH]1 | 17.9
36 | COc1cccc(C(=O)CN2CCN(S(=O)(=O)c3ccc(Br)cc3)CC2)c1 | 2.98
37 | COC(=O)Nc1nn(-c2ccc(Cl)cc2)c(=O)c(C#N)c1C | -6.47
38 | COc1cc2c(cc1OC)C(C)N(C(=O)c1cc3c(=O)oc4ccc(C)cc4c3s1)CC2 (centres unmarked) | 13.7
39 | Cc1ccc(-n2c(-c3ccncc3)n[nH]c2=S)cc1 | 13.4
40 | CC(=O)c1cn(CC(=O)Nc2ccccc2)c2ccccc12 | 8.37
41 | Cc1ccc(S(=O)(=O)/N=C(/Nc2nc(C)cc(C)n2)N2CCOCC2)cc1 | 15.8
42 | O=C(CSCc1ccc(F)cc1)Nc1ccccc1 | -3.29
43 | COc1cccc(/C=N/NC(=S)Nc2cccc(S(=O)(=O)N(C)C)c2)c1 | 11.8
44 | O=C1CC(N2CCN(Cc3ccccc3)CC2)C(=O)N1 (centres unmarked) | 16.4
